Data taken from EP4563146A1 (IRBM S.P.A., priority 2023, dated 2025).

biological target: ZIKV NS2B-G4SG4-NS3 serine protease (Zika virus, UniProt A0A024B7W1, R1467A/R1531G); experiment: ZIKV protease inhibition assay; assay type: biochemical; details: not given

Structure (SMILES) | IC50 [nM]
N[C@H]1CC[C@H](C[n+]2cc([N-]C(=O)Nc3cc(N4CCC(c5ccccc5)C4=O)cc(C(F)(F)F)c3)on2)CC1 (stereo partly drawn) [Example 132, (3-(((1R,4R)-4-Aminocyclohexyl)methyl)-1,2,3-oxadiazol-3-ium-5-yl)((3-(2-oxo-3-phenylpyrrolidin-1-yl)-5-(trifluoromethyl)-phenyl)carbamoyl)amide] | 100 to 1000
NC[C@H]1CC[C@@H](C[n+]2cc([N-]C(=O)Nc3cc(N4CCC(c5ccccc5)C4=O)cc(C(F)(F)F)c3)on2)CC1 (stereo partly drawn) [Example 133, (3-(((1S,4S)-4-(Aminomethyl)cyclohexyl)-methyl)-1,2,3-oxadiazol-3-ium-5-yl)((3-(2-oxo-3-phenylpyrrolidin-1-yl)-5-(trifluoromethyl)-phenyl)carbamoyl)amide] | < 100
O=C([N-]c1c[n+]([C@H]2CC[C@@H](CNCC(F)(F)F)CC2)no1)Nc1cc(N2CCC(c3ccccc3)C2=O)cc(C(F)(F)F)c1 (stereo partly drawn) [Example 135, ((3-(2-Oxo-3-phenylpyrrolidin-1-yl)-5-(trifluoromethyl)phenyl)carbamoyl)(3-((1S,4S)-4-(((2,2,2-trifluoroethyl)amino)methyl)-cyclohexyl)-1,2,3-oxadiazol-3-ium-5-yl)amide] | 100 to 1000
O=C([N-]c1c[n+](C[C@H]2CC[C@@H](NCC(F)(F)F)CC2)no1)Nc1cc(N2CCC(c3ccccc3)C2=O)cc(C(F)(F)F)c1 (some centres unmarked) [Example 136, ((3-(2-Oxo-3-phenylpyrrolidin-1-yl)-5-(trifluoromethyl)phenyl)carbamoyl)(3-(((1s,4s)-4-((2,2,2-trifluoroethyl)amino)cyclohexyl)methyl)-1,2,3-oxadiazol-3-ium-5-yl)amide] | 100 to 1000
O=C([N-]c1c[n+](C[C@H]2CC[C@H](NCC(F)(F)F)CC2)no1)Nc1cc(N2CCC(c3ccccc3)C2=O)cc(C(F)(F)F)c1 (stereo partly drawn) [Example 137, ((3-(2-Oxo-3-phenylpyrrolidin-1-yl)-5-(trifluoromethyl)phenyl)carbamoyl)(3-(((1R,4R)-4-((2,2,2-trifluoroethyl)amino)-cyclohexyl)methyl)-1,2,3-oxadiazol-3-ium-5-yl)amide] | 100 to 1000
CN(C)C[C@H]1CC[C@@H]([n+]2cc([N-]C(=O)Nc3cc(N4CCC(c5ccccc5)C4=O)cc(C(F)(F)F)c3)on2)CC1 (stereo partly drawn) [Example 138, (3-((1S,4S)-4-((Dimethylamino)methyl)-cyclohexyl)-1,2,3-oxadiazol-3-ium-5-yl)((3-(2-oxo-3-phenylpyrrolidin-1-yl)-5-(trifluoromethyl)-phenyl)carbamoyl)amide] | 100 to 1000
O=C([N-]c1c[n+](C[C@H]2CC[C@@H](CNCC(F)(F)F)CC2)no1)Nc1cc(N2CCC(c3ccccc3)C2=O)cc(C(F)(F)F)c1 (some centres unmarked) [Example 139, ((3-(2-Oxo-3-phenylpyrrolidin-1-yl)-5-(trifluoromethyl)phenyl)carbamoyl)(3-(((1s,4s)-4-(((2,2,2-trifluoroethyl)amino)methyl)cyclohexyl)-methyl)-1,2,3-oxadiazol-3-ium-5-yl)amide] | 100 to 1000
N[C@H]1CC[C@H](C[n+]2cc([N-]C(=O)Nc3cc(N4CC[C@H](c5ccccc5)C4=O)cc(C(F)(F)F)c3)on2)CC1 [Example 143, (3-(((1R,4R)-4-Aminocyclohexyl)methyl)-1,2,3-oxadiazol-3-ium-5-yl)((3-((R)-2-oxo-3-phenylpyrrolidin-1-yl)-5-(trifluoromethyl)-phenyl)carbamoyl)amide] | 100 to 1000
O=C([N-]c1c[n+](C[C@H]2CC[C@H](NCC(F)(F)F)CC2)no1)Nc1cc(N2CC[C@H](c3ccccc3)C2=O)cc(C(F)(F)F)c1 [Example 144, ((3-((R)-2-Oxo-3-phenylpyrrolidin-1-yl)-5-(trifluoromethyl)phenyl)carbamoyl)(3-(((1r,4r)-4-((2,2,2-trifluoroethyl)amino)cyclohexyl)-methyl)-1,2,3-oxadiazol-3-ium-5-yl)amide] | 100 to 1000
O=C([N-]c1c[n+](C[C@H]2CC[C@H](NC(=O)C(F)(F)F)CC2)no1)Nc1cc(N2CC[C@H](c3ccccc3)C2=O)cc(C(F)(F)F)c1 [Example 145, ((3-((R)-2-Oxo-3-phenylpyrrolidin-1-yl)-5-(trifluoromethyl)phenyl)carbamoyl)(3-(((1R,4R)-4-(2,2,2-trifluoroacetamido)cyclohexyl)methyl)-1,2,3-oxadiazol-3-ium-5-yl)amide] | 100 to 1000
CN(CC(F)(F)F)[C@H]1CC[C@H](C[n+]2cc([N-]C(=O)Nc3cc(N4CC[C@H](c5ccccc5)C4=O)cc(C(F)(F)F)c3)on2)CC1 [Example 146, (3-(((1R,4R)-4-(Methyl(2,2,2-trifluoroethyl)-amino)cyclohexyl)methyl)-1,2,3-oxadiazol-3-ium-5-yl)((3-((R)-2-oxo-3-phenylpyrrolidin-1-yl)-5-(trifluoromethyl)phenyl)carbamoyl)amide] | < 100
CN(C)C[C@H]1CC[C@H]([n+]2cc([N-]C(=O)Nc3cc(N4CCC(c5ccccc5)C4=O)cc(C(F)(F)F)c3)on2)CC1 (stereo partly drawn) [Example 148, (3-((1R,4R)-4-((Dimethylamino)methyl)-cyclohexyl)-1,2,3-oxadiazol-3-ium-5-yl)((3-(2-oxo-3-phenylpyrrolidin-1-yl)-5-(trifluoromethyl)-phenyl)carbamoyl)amide] | 100 to 1000

same assay, conditions: 1.25 nM enzyme, 10 µM Bz-Nle-KRR-AMC substrate, 25 °C; read-out: Zika - NS3 protease

Structure (SMILES) | IC50 [nM]
CN(C)C[C@H]1CC[C@H]([n+]2cc([N-]C(=O)Nc3cc(NC(=O)Cc4ccccc4)cc(C(F)(F)F)c3)on2)CC1 [Example 147, (3-((1R,4R)-4-((Dimethylamino)methyl)-cyclohexyl)-1,2,3-oxadiazol-3-ium-5-yl)((3-(2-phenylacetamido)-5-(trifluoromethyl)phenyl)-carbamoyl)amide] | < 100
COc1ccccc1CC(=O)Nc1cc(NC(=O)[N-]c2c[n+](C3CCC(CN(C)C)CC3)no2)cc(C(F)(F)F)c1 [Example 153, (3-((1R,4R)-4-((Dimethylamino)methyl)-cyclohexyl)-1,2,3-oxadiazol-3-ium-5-yl)((3-(2-(2-methoxyphenyl)acetamido)-5-(trifluoromethyl)-phenyl)carbamoyl)amide] | < 100
CN(C)C[C@H]1CC[C@H]([n+]2cc([N-]C(=O)Nc3cc(NC(=O)CCc4cn(C)c5ccccc45)cc(C(F)(F)F)c3)on2)CC1 [Example 157, (3-((1R,4R)-4-((Dimethylamino)methyl)-cyclohexyl)-1,2,3-oxadiazol-3-ium-5-yl)((3-(3-(1-methyl-1H-indol-3-yl)propanamido)-5-(trifluoromethyl)phenyl)carbamoyl)amide] | < 100
CN(C)CC1CCC([n+]2cc([N-]C(=O)Nc3cc(NC(=O)CCc4cnccn4)cc(C(F)(F)F)c3)on2)CC1 [Example 158, (3-((1R,4R)-4-((Dimethylamino)methyl)-cyclohexyl)-1,2,3-oxadiazol-3-ium-5-yl)((3-(3-(pyrazin-2-yl)propanamido)-5-(trifluoromethyl-)phenyl)carbamoyl)amide] | > 20000
CN(C)CC1CCC([n+]2cc([N-]C(=O)Nc3cc(NC(=O)Cc4ccccc4C(=O)O)cc(C(F)(F)F)c3)on2)CC1 [Example 159, ((3-(2-(2-Carboxyphenyl)acetamido)-5-(trifluoromethyl)phenyl)carbamoyl)(3-((1R,4R)-4-((dimethylamino)methyl)cyclohexyl)-1,2,3-oxadiazol-3-ium-5-yl)amide] | < 100
